Laboratory results from a compilation of properties of binary mixtures (doi:10.1021/acs.jced.1c00023).
The densities may have been worked out from excess volumes.

Experiment: xn = mol fraction of the nth substance listed
Conditions: 101.3 kPa

Structure (SMILES)	mass density (293.15 K, x2 = 0.333) [kg/m3]	mass density (298.15 K, x2 = 0.333) [kg/m3]	mass density (303.15 K, x2 = 0.333) [kg/m3]	mass density (308.15 K, x2 = 0.333) [kg/m3]	mass density (313.15 K, x2 = 0.333) [kg/m3]	mass density (318.15 K, x2 = 0.333) [kg/m3]	mass density (323.15 K, x2 = 0.333) [kg/m3]	mass density (328.15 K, x2 = 0.333) [kg/m3]	mass density (298.15 K, x2 = 0.5) [kg/m3]	mass density (318.15 K, x2 = 0.5) [kg/m3]	mass density (323.15 K, x2 = 0.5) [kg/m3]	mass density (328.15 K, x2 = 0.5) [kg/m3]
Oc1cccc(O)c1O + CCCCCCCCCCCC[N+](C)(C)C.[Br-]	1173	1169.4	1165.6	1161.7	1158.1	1154.6	1151.1	1147.6	–	–	–	–
Oc1cccc(O)c1O + CCC[N+](CCC)(CCC)CCC.[Br-]	–	–	–	–	–	–	–	–	1204.7	1190.2	1186.8	1183.4
